Test [1] deals with T1, recombinant human IL4 (human, UniProt P05112 25-153).
T1 construct: also called Antigen1
T1 sequence (looked up): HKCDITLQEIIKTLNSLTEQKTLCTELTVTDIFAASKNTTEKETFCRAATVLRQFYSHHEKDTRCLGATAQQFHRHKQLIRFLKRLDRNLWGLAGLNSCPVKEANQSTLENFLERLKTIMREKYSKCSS
Nature of the test: SPR, Biacore 3000; CODV-Ig captured by anti-human Fc, antigen as analyte.

The target of test [2] is T1, recombinant human IL4. Nature of the test: SPR, BIACORE 3000; antibody captured by anti-human Fc, antigen 0-25 nM as analyte.
The next test concerns the target T2, recombinant human IL13 (human, UniProt P35225 partial chain, limits assumed).
T2 construct: also called Antigen2
Nature of the test: SPR, Biacore 3000; CODV-Ig captured by anti-human Fc, antigen as analyte.

In test [3] the target is T1, recombinant human IL4. The test is described as follows: binding assay not named (Example 1).

Sequence of recombinant human IL13 (P35225 35-146 limits assumed): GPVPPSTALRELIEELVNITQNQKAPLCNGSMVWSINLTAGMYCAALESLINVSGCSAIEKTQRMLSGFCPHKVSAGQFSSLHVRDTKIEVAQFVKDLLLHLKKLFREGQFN

B1: CODV-Ig LC4:HC6 (IL4 VL-(Gly)-IL13 VL-(Gly2)-CL1 / IL13 VH-(Gly4)-IL4 VH-(Gly4)-CH1-Fc) (bispecific antibody, human IgG1, kappa)
heavy: EVQLKESGPGLVAPGGSLSITCTVSGFSLTDSSINWVRQPPGKGLEWLGMIWGDGRIDYADALKSRLSISKDSSKSQVFLEMTSLRTDDTATYYCARDGYFPYAMDFWGQGTSVTVSSGGGGQVQLQQSGPELVKPGASVKISCKASGYSFTSYWIHWIKQRPGQGLEWIGMIDPSDGETRLNQRFQGRATLTVDESTSTAYMQLRSPTSEDSAVYYCTRLKEYGNYDSFYFDVWGAGTLVTVSSGGGG[letters of human IgG1 constant region not shown]
light: DIQMTQSPASLSVSVGDTITLTCHASQNIDVWLSWFQQKPGNIPKLLIYKASNLHTGVPSRFSGSGSGTGFTLTISSLQPEDIATYYCQQAHSYPFTFGGGTKLEIKGDIVLTQSPASLAVSLGQRATISCRASESVDSYGQSYMHWYQQKAGQPPKLLIYLASNLESGVPARFSGSGSRTDFTLTIDPVQAEDAATYYCQQNAEDSRTFGGGTKLEIKGGRTVAAPSVFIFPPSDEQLKSGTASVVCLLNNFYPREAKVQWKVDNALQSGNSQESVTEQDSKDSTYSLSSTLTLSKADYEKHKVYACEVTHQGLSSPVTKSFNRGEC
notes: IgG1 format; also called Batch ID 123
As for B1, in the test with recombinant human IL4 [1], the Kd was 0.009 nM. In addition, in the test with recombinant human IL4 [2], the Kd was 0.0111 nM, the koff turned out to be 0.00033 s⁻¹ and the kon was 2.97e+07 M⁻¹ s⁻¹.

B2: CODV-Ig Batch ID 116 (IL4 × IL13 on LC; L1=1, L2=2, L3=1, L4=4) (bispecific antibody)
chain 1: EVQLKESGPGLVAPGGSLSITCTVSGFSLTDSSINWVRQPPGKGLEWLGMIWGDGRIDYADALKSRLSISKDSSKSQVFLEMTSLRTDDTATYYCARDGYFPYAMDFWGQGTSVTVSSGQVQLQQSGPELVKPGASVKISCKASGYSFTSYWIHWIKQRPGQGLEWIGMIDPSDGETRLNQRFQGRATLTVDESTSTAYMQLRSPTSEDSAVYYCTRLKEYGNYDSFYFDVWGAGTLVTVSSGGGG[letters of human IgG1 constant region not shown]
chain 2: B1 light
Take B2: the equilibrium dissociation constant (Kd) with recombinant human IL4 [1] was 0.005 nM; in the test with recombinant human IL13 it was 0.074 nM.

B3: CODV-Ig LC4:HC4 (IL4 VL-(Gly)-IL13 VL-(Gly2)-CL1 / IL13 VH-(Gly2)-IL4 VH-(Gly4)-CH1-Fc) (bispecific antibody, human IgG1, kappa)
heavy: EVQLKESGPGLVAPGGSLSITCTVSGFSLTDSSINWVRQPPGKGLEWLGMIWGDGRIDYADALKSRLSISKDSSKSQVFLEMTSLRTDDTATYYCARDGYFPYAMDFWGQGTSVTVSSGGQVQLQQSGPELVKPGASVKISCKASGYSFTSYWIHWIKQRPGQGLEWIGMIDPSDGETRLNQRFQGRATLTVDESTSTAYMQLRSPTSEDSAVYYCTRLKEYGNYDSFYFDVWGAGTLVTVSSGGGG[letters of human IgG1 constant region not shown]
light: B1 light
notes: IgG1 format; also called HC4:LC4; Batch ID 121
In the case of B3, in the test with recombinant human IL4 [2], the Kd worked out at 0.00914 nM, the off-rate (koff) worked out at 0.000289 s⁻¹ and the association rate constant (kon) turned out to be 3.16e+07 M⁻¹ s⁻¹.

B4: CODV-Ig Batch ID 120 (IL4 × IL13 on LC; L1=1, L2=2, L3=2, L4=2) (bispecific antibody)
chain 1: EVQLKESGPGLVAPGGSLSITCTVSGFSLTDSSINWVRQPPGKGLEWLGMIWGDGRIDYADALKSRLSISKDSSKSQVFLEMTSLRTDDTATYYCARDGYFPYAMDFWGQGTSVTVSSGGQVQLQQSGPELVKPGASVKISCKASGYSFTSYWIHWIKQRPGQGLEWIGMIDPSDGETRLNQRFQGRATLTVDESTSTAYMQLRSPTSEDSAVYYCTRLKEYGNYDSFYFDVWGAGTLVTVSSGG[letters of human IgG1 constant region not shown]
chain 2: B1 light
On to B4, for which the Kd with recombinant human IL4 [1] came out at 0.006 nM; with recombinant human IL13, 0.07 nM.

B5: CODV-Ig Batch ID 115 (IL4 × IL13 on LC; L1=1, L2=2, L3=0, L4=4) (bispecific antibody)
chain 1: EVQLKESGPGLVAPGGSLSITCTVSGFSLTDSSINWVRQPPGKGLEWLGMIWGDGRIDYADALKSRLSISKDSSKSQVFLEMTSLRTDDTATYYCARDGYFPYAMDFWGQGTSVTVSSQVQLQQSGPELVKPGASVKISCKASGYSFTSYWIHWIKQRPGQGLEWIGMIDPSDGETRLNQRFQGRATLTVDESTSTAYMQLRSPTSEDSAVYYCTRLKEYGNYDSFYFDVWGAGTLVTVSSGGGG[letters of human IgG1 constant region not shown]
chain 2: B1 light
With B5, the values for the equilibrium dissociation constant (Kd) with recombinant human IL4 [1] and with recombinant human IL13 were 0.011 nM and 0.062 nM, respectively.

B6: CODV-Ig Batch ID 114 (IL4 × IL13 on LC; L1=1, L2=2, L3=0, L4=2) (bispecific antibody)
chain 1: EVQLKESGPGLVAPGGSLSITCTVSGFSLTDSSINWVRQPPGKGLEWLGMIWGDGRIDYADALKSRLSISKDSSKSQVFLEMTSLRTDDTATYYCARDGYFPYAMDFWGQGTSVTVSSQVQLQQSGPELVKPGASVKISCKASGYSFTSYWIHWIKQRPGQGLEWIGMIDPSDGETRLNQRFQGRATLTVDESTSTAYMQLRSPTSEDSAVYYCTRLKEYGNYDSFYFDVWGAGTLVTVSSGG[letters of human IgG1 constant region not shown]
chain 2: B1 light
Take B6: the dissociation constant Kd with recombinant human IL4 [1] amounted to 0.004 nM; in the test with recombinant human IL13, 0.075 nM.

B7: CODV-Ig Batch ID 112 (IL4 × IL13 on LC; L1=1, L2=1, L3=2, L4=4) (bispecific antibody)
chain 1: B3 heavy
chain 2: DIQMTQSPASLSVSVGDTITLTCHASQNIDVWLSWFQQKPGNIPKLLIYKASNLHTGVPSRFSGSGSGTGFTLTISSLQPEDIATYYCQQAHSYPFTFGGGTKLEIKGDIVLTQSPASLAVSLGQRATISCRASESVDSYGQSYMHWYQQKAGQPPKLLIYLASNLESGVPARFSGSGSRTDFTLTIDPVQAEDAATYYCQQNAEDSRTFGGGTKLEIKGRTVAAPSVFIFPPSDEQLKSGTASVVCLLNNFYPREAKVQWKVDNALQSGNSQESVTEQDSKDSTYSLSSTLTLSKADYEKHKVYACEVTHQGLSSPVTKSFNRGEC
For the molecule B7, the dissociation constant (Kd) was found to be 0.005 nM with recombinant human IL4 [1] and 0.055 nM with recombinant human IL13.

B8: CODV-Ig Batch ID 131 (IL4 × IL13 on LC; L1=2, L2=2, L3=2, L4=4) (bispecific antibody)
chain 1: B3 heavy
chain 2: DIQMTQSPASLSVSVGDTITLTCHASQNIDVWLSWFQQKPGNIPKLLIYKASNLHTGVPSRFSGSGSGTGFTLTISSLQPEDIATYYCQQAHSYPFTFGGGTKLEIKGGDIVLTQSPASLAVSLGQRATISCRASESVDSYGQSYMHWYQQKAGQPPKLLIYLASNLESGVPARFSGSGSRTDFTLTIDPVQAEDAATYYCQQNAEDSRTFGGGTKLEIKGGRTVAAPSVFIFPPSDEQLKSGTASVVCLLNNFYPREAKVQWKVDNALQSGNSQESVTEQDSKDSTYSLSSTLTLSKADYEKHKVYACEVTHQGLSSPVTKSFNRGEC
Take B8: the Kd was determined as 0.005 nM with recombinant human IL4 [1] and 0.05 nM in the test with recombinant human IL13.

B9: CODH-Ig anti-IL13 VH-(G4S)-anti-IL4 VH-CH1-Fc / anti-IL4 VL-(G4S)-anti-IL13 VL-CL (bispecific antibody, human IgG1, kappa)
heavy: EVQLKESGPGLVAPGGSLSITCTVSGFSLTDSSINWVRQPPGKGLEWLGMIWGDGRIDYADALKSRLSISKDSSKSQVFLEMTSLRTDDTATYYCARDGYFPYAMDFWGQGTSVTVSSGGGGSQVQLQQSGPELVKPGASVKISCKASGYSFTSYWIHWIKQRPGQGLEWIGMIDPSDGETRLNQRFQGRATLTVDESTSTAYMQLRSPTSEDSAVYYCTRLKEYGNYDSFYFDVWGAGTLVTVSS[letters of human IgG1 constant region not shown]
light: DIQMTQSPASLSVSVGDTITLTCHASQNIDVWLSWFQQKPGNIPKLLIYKASNLHTGVPSRFSGSGSGTGFTLTISSLQPEDIATYYCQQAHSYPFTFGGGTKLEIKGGGGSDIVLTQSPASLAVSLGQRATISCRASESVDSYGQSYMHWYQQKAGQPPKLLIYLASNLESGVPARFSGSGSRTDFTLTIDPVQAEDAATYYCQQNAEDSRTFGGGTKLEIKRTVAAPSVFIFPPSDEQLKSGTASVVCLLNNFYPREAKVQWKVDNALQSGNSQESVTEQDSKDSTYSLSSTLTLSKADYEKHKVYACEVTHQGLSSPVTKSFNRGEC
notes: also called IL13(G4S)IL4CH1-Fc + IL4(G4S)IL13CL
For B9, the binding result with recombinant human IL4 [3] was “no binding”.

B10: CODH-Ig anti-IL13 VH-(G4S)2-anti-IL4 VH-CH1-Fc / anti-IL4 VL-(G4S)-anti-IL13 VL-CL (bispecific antibody, human IgG1, kappa)
heavy: EVQLKESGPGLVAPGGSLSITCTVSGFSLTDSSINWVRQPPGKGLEWLGMIWGDGRIDYADALKSRLSISKDSSKSQVFLEMTSLRTDDTATYYCARDGYFPYAMDFWGQGTSVTVSSGGGGSGGGGSQVQLQQSGPELVKPGASVKISCKASGYSFTSYWIHWIKQRPGQGLEWIGMIDPSDGETRLNQRFQGRATLTVDESTSTAYMQLRSPTSEDSAVYYCTRLKEYGNYDSFYFDVWGAGTLVTVSS[letters of human IgG1 constant region not shown]
light: B9 light
notes: also called IL13(G4S2)IL4CH1-Fc + IL4(G4S)IL13CL
In the case of B10, the binding result in the test with recombinant human IL4 [3] is on record as “no binding”.

B11: CODH-Ig anti-IL13 VH-(G4S)-anti-IL4 VH-CH1-Fc / anti-IL4 VL-(G4S)2-anti-IL13 VL-CL (bispecific antibody, human IgG1, kappa)
heavy: B9 heavy
light: DIQMTQSPASLSVSVGDTITLTCHASQNIDVWLSWFQQKPGNIPKLLIYKASNLHTGVPSRFSGSGSGTGFTLTISSLQPEDIATYYCQQAHSYPFTFGGGTKLEIKGGGGSGGGGSDIVLTQSPASLAVSLGQRATISCRASESVDSYGQSYMHWYQQKAGQPPKLLIYLASNLESGVPARFSGSGSRTDFTLTIDPVQAEDAATYYCQQNAEDSRTFGGGTKLEIKRTVAAPSVFIFPPSDEQLKSGTASVVCLLNNFYPREAKVQWKVDNALQSGNSQESVTEQDSKDSTYSLSSTLTLSKADYEKHKVYACEVTHQGLSSPVTKSFNRGEC
notes: also called IL13(G4S)IL4CH1-Fc + IL4(G4S2)IL13CL
With B11, the binding result with recombinant human IL4 [3] is reported as “no binding”.

The values above are taken from patent publication US20180155450A1 (Sanofi, published 2018).
